Our source for the cytotoxicity call values is the antibiotic and cytotoxicity screens of Wong et al. (2023).

Some of the results follow.

In this test the test system is HSkMC (human skeletal muscle cells). Description: cytotoxicity call (relative viability < 0.9). Conditions: 10 µM.
In the case of `C[C@@H]1CN([C@@H](C)CO)S(=O)(=O)c2ccc(C#CC3(O)CCCC3)cc2O[C@H]1CN(C)C(=O)c1ccncc1`, the cytotoxicity call was “inactive”.
Regarding `N[C@@H](CCC(=O)N[C@@H](CCS[C@@H](CC(=O)O)C(=O)O)C(=O)NCC(=O)O)C(=O)O`, the cytotoxicity call is “inactive”.
Consider `COc1ccc(CN(C)C[C@H]2OCCCC[C@H](C)Oc3ccc(NS(=O)(=O)c4ccc(Cl)cc4)cc3C(=O)N([C@H](C)CO)C[C@@H]2C)cc1`, for which the cytotoxicity call is “inactive”.
Turning to `CC(C)NC(=O)Nc1ccc2c(c1)C(=O)N([C@@H](C)CO)C[C@H](C)[C@@H](CN(C)Cc1ccc(Oc3ccccc3)cc1)O2`, the cytotoxicity call is “inactive”.
Turning to `Cc1nnc(SCC2=C(C(=O)O)N3C(=O)[C@@H](N)[C@H]3SC2)s1`, the cytotoxicity call was “inactive”.
The value for `Cc1noc(C)c1NC(=O)Nc1ccc2c(c1)C(=O)N([C@H](C)CO)C[C@@H](C)[C@@H](CN(C)S(=O)(=O)c1cccs1)OCCCC[C@@H](C)O2` was “inactive”; that for `Cc1ccc(S(=O)(=O)Nc2ccc3c(c2)C(=O)N([C@H](C)CO)C[C@@H](C)[C@@H](CN(C)C(=O)Cc2ccccc2)OCCCC[C@H](C)O3)cc1` was “inactive”.
The value for `O=C(C[C@@H]1C[C@@H]2c3cc(NS(=O)(=O)c4ccc(F)cc4)ccc3O[C@@H]2[C@@H](CO)O1)NCc1ccncc1` was “inactive”; that for `COc1ccccc1C#Cc1ccc2c(c1)O[C@@H](CN(C)Cc1ccncc1)[C@H](C)CN([C@@H](C)CO)S2(=O)=O` was “active”; that for `COc1ccc(S(=O)(=O)N(C)C[C@@H]2Oc3ccc(NS(=O)(=O)c4ccc(C)cc4)cc3CC(=O)N([C@H](C)CO)C[C@@H]2C)cc1` was “inactive”.
As to `COC(=O)[C@@H](Cc1ccc(-n2cc(C(=O)NO)nn2)cc1)N1CC(/C=C/C2CC2)=C[C@H]1[C@H](O)Cc1ccccc1`, the cytotoxicity call is “inactive”.
Turning to `CNC[C@@H]1Oc2ccc(NC(=O)Cn3cnnn3)cc2C(=O)N([C@@H](C)CO)C[C@@H]1C`, the cytotoxicity call is “inactive”.
With `C[C@H](CO)N1C[C@H](C)[C@@H](CN(C)CC2CC2)OCCCC[C@H](C)Oc2ccc(NC(=O)Nc3ccc(C(F)(F)F)cc3)cc2C1=O`, the cytotoxicity call is “inactive”.
On to `COc1ccc(S(=O)(=O)Nc2cccc3c2O[C@H](CN(C)C(=O)Nc2cccc4ccccc24)[C@@H](C)CN([C@@H](C)CO)C3=O)cc1`, for which the cytotoxicity call is “inactive”.
Turning to `CCc1nc2ccc(C(=O)N3CCN(S(=O)(=O)CC)CC3)cn2c1N(CCC(C)C)CCN(C)C`, the cytotoxicity call is “inactive”.
With `COc1ccc(NC(=O)N(C)C[C@@H]2OCCCC[C@H](C)Oc3ccc(NS(=O)(=O)c4ccc(Cl)cc4)cc3C(=O)N([C@H](C)CO)C[C@H]2C)cc1`, the cytotoxicity call was “inactive”.
As to `C[C@@H]1CN([C@H](C)CO)C(=O)Cc2cc(NC(=O)CCCCCC(=O)Nc3ccccc3N)ccc2O[C@@H]1CN(C)S(C)(=O)=O`, the cytotoxicity call is “inactive”.
Turning to `Cc1noc(C)c1S(=O)(=O)Nc1ccc2c(c1)C(=O)N([C@H](C)CO)C[C@H](C)[C@@H](CN(C)S(C)(=O)=O)O2`, the cytotoxicity call was “inactive”.
Consider `Fc1ccc(C2=NNC3=NCCN3C2)cc1F`, for which the cytotoxicity call was “inactive”.
Regarding `C[C@H](CO)N1C[C@H](C)[C@@H](CN(C)CC2CCCCC2)Oc2ccc(NC(=O)Nc3cccc4ccccc34)cc2CC1=O`, the cytotoxicity call is “inactive”.
For the molecule `C[C@@H]1CN([C@H](C)CO)C(=O)c2cc(NS(=O)(=O)c3cccs3)ccc2O[C@@H]1CN(C)S(=O)(=O)c1ccccc1`, the cytotoxicity call was “inactive”.
As for `CNC(=O)Cn1c(=O)c2c(OC)ccnc2n(C)c1=O`, the cytotoxicity call is “inactive”.
With `C[C@H](CO)N1C[C@H](C)[C@@H](CN(C)C(=O)NC2CCCCC2)Oc2c(NC(=O)C3CC3)cccc2C1=O` the entry was “inactive”; with `C[C@@H]1CCCCO[C@H](CN(C)S(=O)(=O)c2ccc(Cl)cc2)[C@H](C)CN([C@@H](C)CO)C(=O)c2cc(NC(=O)Nc3ccc4c(c3)OCO4)ccc2O1`, “inactive”; with `COc1cccc2c1C(=O)c1c(O)c3c(c(O)c1C2=O)C[C@](O)(C(C)=O)C[C@H]3O[C@H]1C[C@@H](N)[C@@H](O)[C@@H](C)O1`, “active”.
Regarding `Cc1noc(C)c1NC(=O)N(C)C[C@@H]1Oc2ccc(NC(=O)Nc3ccc(C(F)(F)F)cc3)cc2C(=O)N([C@@H](C)CO)C[C@H]1C`, the cytotoxicity call is “inactive”.
With `COc1ccc(CN(C)C[C@@H]2Oc3ccc(NC(=O)Cn4cnnn4)cc3C(=O)N([C@@H](C)CO)C[C@@H]2C)cc1`, the cytotoxicity call is “inactive”.
With `C[C@@H]1CN([C@H](C)CO)C(=O)c2cc(NC(=O)c3ccccc3)ccc2O[C@@H](C)CCCCO[C@@H]1CN(C)Cc1ccccc1`, the cytotoxicity call is “inactive”.
As for `O=C1NC[C@@H](c2ccccc2)OC(=O)[C@@H](Cc2ccc(F)cc2)CC/C=C/C[C@@H]1CC(=O)N(CCO)Cc1ccccc1`, the cytotoxicity call is “inactive”.
The value for `C[C@@H]1CCCCO[C@@H](CN(C)C(=O)Nc2ccccc2)[C@@H](C)CN([C@H](C)CO)C(=O)c2cc(NC(=O)NC3CCCCC3)ccc2O1` was “inactive”.
